Consider 109 sequences from the supplement of paper PMC3334620.

Over roughly 33,000 sequences, “E-score (-0.5 to 0.5)” has its median near -0.013; the highest 2% begin near 0.3. This is one part of the list.

The target in the assay is T1, Msn1 (UniProt P22148).
T1 sequence: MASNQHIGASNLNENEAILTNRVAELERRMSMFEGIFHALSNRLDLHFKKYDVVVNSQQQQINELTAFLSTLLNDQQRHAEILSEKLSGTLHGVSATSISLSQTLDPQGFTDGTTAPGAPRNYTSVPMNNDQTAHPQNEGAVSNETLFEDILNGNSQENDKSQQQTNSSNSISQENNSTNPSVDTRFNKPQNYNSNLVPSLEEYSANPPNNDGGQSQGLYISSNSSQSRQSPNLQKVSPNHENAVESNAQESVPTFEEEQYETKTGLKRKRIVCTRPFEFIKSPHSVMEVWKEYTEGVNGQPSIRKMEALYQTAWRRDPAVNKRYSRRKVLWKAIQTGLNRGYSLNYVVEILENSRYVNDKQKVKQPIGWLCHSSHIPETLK
Put plainly: PBM E-score (8-mer binding enrichment) (E-score (-0.5 to 0.5)); higher = stronger / more preferred TF binding; most listed sequences are background and not binding sites. The settings on record: protein concentration: 200 nM; construct: GST-full length. In outline: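 Masliner-normalised scans of fluorescent anti-GST signal were the basis for scoring. That signal came from GST-tagged yeast transcription factors applied at about 100-200 nM to double-stranded universal all-10-mer Agilent arrays on fresh or once-stripped slides. Each ungapped eight-base word, pooled with its reverse complement, received an E-score from the Universal PBM Analysis Suite.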
AGGAAGAT: the “PBM E-score” value is 0.0257.
Turning to CCGTCGCG, the “PBM E-score” value was -0.192.
Consider TCAGGCGA, for which the “PBM E-score” value is -0.0372.
For the sequence ATTAGTGC, the “PBM E-score” value was 0.231.
Turning to GCTGGCAA, the “PBM E-score” value came to 0.186.
In the case of AATAGGGA, the “PBM E-score” value was -0.154.
As for CACAGCGG, the “PBM E-score” value was -0.121.
The same measure for GAACAATA: 0.144.
Take AGGAGTCG: the “PBM E-score” value was -0.217.
GCGACTGA: the “PBM E-score” value came to 0.0324.
With GTGTTAGA, the “PBM E-score” value is 0.00427.
On to AAATCTAG, for which the “PBM E-score” value is -0.049.
For the sequence ATGCCAAC, the “PBM E-score” value worked out at 0.0264.
With CAACGATA, the “PBM E-score” value amounted to 0.123.
For CAGCACAG, the “PBM E-score” value came out at 0.00522.
AGATCCGC: the “PBM E-score” value was -0.0945.
Consider ATTATAAC, for which the “PBM E-score” value is 0.0372.
The same measure for CTGGGCCA: -0.246; for CCATGCCC: -0.021; for CCTGGATC: -0.0975.
Take ATCTTCTC: the “PBM E-score” value was -0.0883.
Take CTGCGCAG: the “PBM E-score” value was -0.0334.
As to CTCACGCA, the “PBM E-score” value was 0.152.
On to CGAACCTA, for which the “PBM E-score” value is -0.201.
ACTTGTTA: the “PBM E-score” value was found to be 0.0301.
Consider ACCCGCAA, for which the “PBM E-score” value is -0.169.
On to CTTCGAAA, for which the “PBM E-score” value was 0.0685.
Turning to AAGTGAGG, the “PBM E-score” value is -0.128.
In the case of ATGACTCA, the “PBM E-score” value was 0.0453.
For ACCGCTCC, the “PBM E-score” value is -0.278.
Turning to AACAGTCA, the “PBM E-score” value is -0.106.
ACAGTCAT: the “PBM E-score” value is -0.111.
With AGTGGCAC, the “PBM E-score” value is -0.158.
In the case of CGGTAACC, the “PBM E-score” value was -0.172.
For the sequence GTTCAAAC, the “PBM E-score” value is 0.0784.
Regarding ATGAAGAG, the “PBM E-score” value was -0.099.
For the sequence TAAAAGAA, the “PBM E-score” value came out at 0.186.
The figure for TGGTAGAA is -0.0667; for CAGGCGGG it is -0.251; for CCCTACCG it is -0.256.
The figure for CATACTGC is -0.16; for CAAGAATA it is 0.116; for ATCTACGC it is 0.0817.
The figure for GATCCGTA is -0.147.
On to CCTTGAGC, for which the “PBM E-score” value is -0.0431.
Turning to ATGGAAGG, the “PBM E-score” value is -0.203.
For TGCACACA, the “PBM E-score” value is 0.0221.
The same measure for CTTCGATC: -0.0311; for CATGGCCG: -0.133; for CACAACGG: -0.0673.
Turning to AAGAACAA, the “PBM E-score” value was 0.241.
Consider AAACAGGC, for which the “PBM E-score” value was -0.0709.
The same measure for GGAGAGAA: -0.154; for ATGGTACC: -0.149.
The same measure for AAGCCGTC: 0.0517; for GAACCTGC: -0.163.
With AGATTTAC, the “PBM E-score” value turned out to be 0.141.
For the sequence ACTGTCAT, the “PBM E-score” value worked out at 0.0249.
With GATCTAGA, the “PBM E-score” value was -0.0525.
As to ACATCCAT, the “PBM E-score” value is -0.0429.
With AACTAAGA, the “PBM E-score” value worked out at 0.112.
Take AGCCTCTG: the “PBM E-score” value was -0.291.
With CCCAAAGA, the “PBM E-score” value was determined as 0.084.
As for CAGGTGTC, the “PBM E-score” value turned out to be 0.104.
Regarding AACTGCTA, the “PBM E-score” value was -0.115.
On to GAAAGCGA, for which the “PBM E-score” value came out at 0.0605.
On to ACACAATA, for which the “PBM E-score” value amounted to 0.15.
TACACGCA: the “PBM E-score” value was -0.112.
TAAGCCAA: the “PBM E-score” value was -0.117.
The figure for GACAGTGA is 0.0705.
For the sequence TACGGACA, the “PBM E-score” value was 0.44.
For AGAATGTC, the “PBM E-score” value was 0.459.
For ATCTTGTA, the “PBM E-score” value was determined as 0.0261.
The figure for ATAAGTCC is 0.422; for ACCCAGAT it is -0.113; for CGGACGTC it is 0.102.
For GACGTGAC, the “PBM E-score” value was -0.0407.
As for GAGAACAC, the “PBM E-score” value was -0.184.
Turning to CGCCATAA, the “PBM E-score” value was -0.0384.
Take GAACCACA: the “PBM E-score” value is 0.113.
For the sequence TCGAAGCA, the “PBM E-score” value was -0.0338.
In the case of CGTCGCAC, the “PBM E-score” value was -0.0819.
The figure for ACGGGATG is -0.217; for CCTGTTCC it is -0.137.
GGGCAGTA: the “PBM E-score” value is 0.0714.
For GGGTCACA, the “PBM E-score” value is -0.159.
As for CGGTACGC, the “PBM E-score” value was -0.17.
The figure for GGAGCGAA is 0.0407; for ATGGCATC it is -0.0331.
The figure for AGATTTCA is 0.0525.
Take GTATTTGA: the “PBM E-score” value came to 0.0236.
The same measure for ATCTATTC: 0.198; for TATTAAGA: 0.0769; for TCATAGAA: 0.21.
On to GACGATAC, for which the “PBM E-score” value is -0.0128.
On to AGAGCCCC, for which the “PBM E-score” value was -0.205.
For the sequence ACACTTGA, the “PBM E-score” value turned out to be 0.184.
Regarding CCACATAC, the “PBM E-score” value is 0.0664.
Take GAAAGTAC: the “PBM E-score” value came to 0.177.
On to GCATCATA, for which the “PBM E-score” value was found to be 0.126.
The same measure for ACATAGGT: 0.108; for GACCAACA: 0.176; for ATAGAAGA: 0.0763.
The figure for ATCACGCC is -0.132.
In the case of AGAGCGAG, the “PBM E-score” value is -0.141.
The figure for CCTACGCC is -0.282; for GTAGACGA it is 0.115; for ACACACCA it is 0.183.
On to GATTACGC, for which the “PBM E-score” value is -0.04.
